The list shows a part of the results.
How the values were obtained:
Experiment in all cases: glycan array binding signal (z-score within array); higher = stronger binding
Details in all cases: glycan notation: IUPAC condensed, linker removed
[1] = target: GlcNAc(b1-4)GlcNAc(b1-4)GlcNAc(b1-4)GlcNAc(b1-4)GlcNAc
Outline: (§1)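 The Consortium for Functional Glycomics database supplied 3228 glycan arrays, of which those lacking an available protein sequence were dropped. The binding signal, a within-array Z-score, was averaged across arrays of the same protein sequence and across linkers. Negative scores can be read as non-binding.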

[2] = target: GlcNAc(b1-4)GlcNAc(b1-4)GlcNAc(b1-4)GlcNAc(b1-4)GlcNAc(b1-4)GlcNAc
Outline: as §1

[3] = target: GlcNAc(b1-4)[GlcNAc(b1-6)]GalNAc
Outline: as §1

[4] = target: GlcNAc(b1-6)Gal(b1-4)GlcNAc
Outline: as §1

GlcNAc(b1-6)GalNAc = target: GlcNAc(b1-6)GalNAc
Outline: as §1

[5] = target: GlcNAc6S(b1-3)Gal(b1-4)GlcNAc
Outline: as §1

Kdn(a2-3)Gal(b1-3)GalNAc = target: Kdn(a2-3)Gal(b1-3)GalNAc
Outline: as §1

Kdn(a2-3)Gal(b1-3)GlcNAc = target: Kdn(a2-3)Gal(b1-3)GlcNAc
Outline: as §1

Kdn(a2-3)Gal(b1-4)Glc = target: Kdn(a2-3)Gal(b1-4)Glc
Outline: as §1

Kdn(a2-3)Gal(b1-4)GlcNAc = target: Kdn(a2-3)Gal(b1-4)GlcNAc
Outline: as §1

[6] = target: Kdn(a2-3)Gal(b1-4)[Fuc(a1-3)]GlcNAc
Outline: as §1

Kdn(a2-6)Gal(b1-4)GlcNAc = target: Kdn(a2-6)Gal(b1-4)GlcNAc
Outline: as §1

[7] = target: Man(a1-2)Man(a1-2)Man(a1-3)Man
Outline: as §1

[8] = target: Man(a1-2)Man(a1-2)Man(a1-6)[Man(a1-3)]Man
Outline: as §1

Man(a1-2)Man(a1-3)Man = target: Man(a1-2)Man(a1-3)Man
Outline: as §1

[9] = target: Man(a1-2)Man(a1-3)[Man(a1-2)Man(a1-6)]Man
Outline: as §1

[10] = target: Man(a1-2)Man(a1-3)[Man(a1-2)Man(a1-6)]Man(a1-6)[Man(a1-2)Man(a1-2)Man(a1-3)]Man
Outline: as §1

[11] = target: Man(a1-2)Man(a1-3)[Man(a1-2)Man(a1-6)]Man(a1-6)[Man(a1-2)Man(a1-2)Man(a1-3)]Man(b1-4)GlcNAc(b1-4)GlcNAc
Outline: as §1

[12] = target: Man(a1-2)Man(a1-3)[Man(a1-6)]Man(a1-6)[Man(a1-2)Man(a1-3)]Man(b1-4)GlcNAc(b1-4)GlcNAc
Outline: as §1

[13] = target: Man(a1-2)Man(a1-6)[Man(a1-3)]Man(a1-6)[Man(a1-2)Man(a1-2)Man(a1-3)]Man
Outline: as §1

[14] = target: Man(a1-2)Man(a1-6)[Man(a1-3)]Man(a1-6)[Man(a1-2)Man(a1-2)Man(a1-3)]Man(b1-4)GlcNAc(b1-4)GlcNAc
Outline: as §1

Man(a1-3)[Man(a1-6)]Man = target: Man(a1-3)[Man(a1-6)]Man
Outline: as §1

[15] = target: Man(a1-3)[Man(a1-6)]Man(a1-6)[Man(a1-2)Man(a1-3)]Man(b1-4)GlcNAc(b1-4)GlcNAc
Outline: as §1

[16] = target: Man(a1-3)[Man(a1-6)]Man(a1-6)[Man(a1-3)]Man
Outline: as §1

[17] = target: Man(a1-3)[Man(a1-6)]Man(a1-6)[Man(a1-3)]Man(b1-4)GlcNAc(b1-4)GlcNAc
Outline: as §1

[18] = target: Man(a1-3)[Man(a1-6)]Man(b1-4)GlcNAc(b1-4)GlcNAc
Outline: as §1

[19] = target: Man(a1-3)[Man(a1-6)]Man(b1-4)GlcNAc(b1-4)[Fuc(a1-6)]GlcNAc
Outline: as §1

Man(a1-6)Man = target: Man(a1-6)Man
Outline: as §1

Man(b1-4)GlcNAc = target: Man(b1-4)GlcNAc
Outline: as §1

MurNAc(b1-4)GlcNAc = target: MurNAc(b1-4)GlcNAc
Outline: as §1

Neu5Ac(a2-3)Gal = target: Neu5Ac(a2-3)Gal
Outline: as §1

[20] = target: Neu5Ac(a2-3)Gal(b1-3)GalNAc
Outline: as §1

[21] = target: Neu5Ac(a2-3)Gal(b1-3)GalNAc(b1-3)Gal(a1-4)Gal(b1-4)Glc
Outline: as §1

[22] = target: Neu5Ac(a2-3)Gal(b1-3)GalNAc(b1-4)[Neu5Ac(a2-3)]Gal(b1-4)Glc
Outline: as §1

[23] = target: Neu5Ac(a2-3)Gal(b1-3)GalNAc(b1-4)[Neu5Ac(a2-8)Neu5Ac(a2-3)]Gal(b1-4)Glc
Outline: as §1

[24] = target: Neu5Ac(a2-3)Gal(b1-3)GalNAc6S
Outline: as §1

[25] = target: Neu5Ac(a2-3)Gal(b1-3)GlcNAc
Outline: as §1

[26] = target: Neu5Ac(a2-3)Gal(b1-3)GlcNAc(b1-2)Man
Outline: as §1

[27] = target: Neu5Ac(a2-3)Gal(b1-3)GlcNAc(b1-2)Man(a1-3)[GlcNAc(b1-4)][Neu5Ac(a2-3)Gal(b1-3)GlcNAc(b1-2)Man(a1-6)]Man(b1-4)GlcNAc(b1-4)GlcNAc
Outline: as §1

[28] = target: Neu5Ac(a2-3)Gal(b1-3)GlcNAc(b1-2)Man(a1-3)[Neu5Ac(a2-3)Gal(b1-3)GlcNAc(b1-2)Man(a1-6)]Man(b1-4)GlcNAc(b1-4)GlcNAc
Outline: as §1

[29] = target: Neu5Ac(a2-3)Gal(b1-3)GlcNAc(b1-3)Gal(b1-3)GlcNAc
Outline: as §1

[30] = target: Neu5Ac(a2-3)Gal(b1-3)GlcNAc(b1-3)Gal(b1-4)GlcNAc
Outline: as §1

[31] = target: Neu5Ac(a2-3)Gal(b1-3)GlcNAc(b1-3)GalNAc
Outline: as §1

[32] = target: Neu5Ac(a2-3)Gal(b1-3)GlcNAc(b1-4)Gal(b1-4)Glc
Outline: as §1

[33] = target: Neu5Ac(a2-3)Gal(b1-3)GlcNAc(b1-6)GalNAc
Outline: as §1

B1: Gal 3C (Homo sapiens), P17931 (protein)
chain: YGAPAGPLIVPYNLPLPGGVVPRMLITILGTVKPNANRIALDFQRGNDVAFHFNPRFNENNRRVIVCNTKLDNNWGREERQSVFPFESGKPFKIQVLVEPDHFKVAVNDAHLLQYNHRVKKLNEISKLGISGDIDLTSASYTMI
glycan array binding signal (z-score) [1]: -0.351 | glycan array binding signal (z-score) [2]: -0.231 | glycan array binding signal (z-score) [3]: -0.294 | glycan array binding signal (z-score) [4]: -0.297 | glycan array binding signal (z-score) (GlcNAc(b1-6)GalNAc): -0.322 | glycan array binding signal (z-score) [5]: -0.289 | glycan array binding signal (z-score) (Kdn(a2-3)Gal(b1-3)GalNAc): -0.132 | glycan array binding signal (z-score) (Kdn(a2-3)Gal(b1-3)GlcNAc): -0.291 | glycan array binding signal (z-score) (Kdn(a2-3)Gal(b1-4)Glc): -0.237 | glycan array binding signal (z-score) (Kdn(a2-3)Gal(b1-4)GlcNAc): -0.297 | glycan array binding signal (z-score) [6]: -0.278 | glycan array binding signal (z-score) (Kdn(a2-6)Gal(b1-4)GlcNAc): -0.295 | glycan array binding signal (z-score) [7]: -0.309 | glycan array binding signal (z-score) [8]: -0.285 | glycan array binding signal (z-score) (Man(a1-2)Man(a1-3)Man): -0.271 | glycan array binding signal (z-score) [9]: -0.31 | glycan array binding signal (z-score) [10]: -0.342 | glycan array binding signal (z-score) [11]: 0.202 | glycan array binding signal (z-score) [12]: -0.298 | glycan array binding signal (z-score) [13]: -0.235 | glycan array binding signal (z-score) [14]: -0.266 | glycan array binding signal (z-score) (Man(a1-3)[Man(a1-6)]Man): -0.256 | glycan array binding signal (z-score) [15]: 0.776 | glycan array binding signal (z-score) [16]: -0.328 | glycan array binding signal (z-score) [17]: -0.293 | glycan array binding signal (z-score) [18]: -0.065 | glycan array binding signal (z-score) [19]: -0.287 | glycan array binding signal (z-score) (Man(a1-6)Man): -0.243 | glycan array binding signal (z-score) (Man(b1-4)GlcNAc): -0.133 | glycan array binding signal (z-score) (MurNAc(b1-4)GlcNAc): -0.322 | glycan array binding signal (z-score) (Neu5Ac(a2-3)Gal): -0.314 | glycan array binding signal (z-score) [20]: -0.318 | glycan array binding signal (z-score) [21]: -0.19 | glycan array binding signal (z-score) [22]: -0.209 | glycan array binding signal (z-score) [23]: -0.246 | glycan array binding signal (z-score) [24]: -0.328 | glycan array binding signal (z-score) [25]: -0.262 | glycan array binding signal (z-score) [26]: -0.298 | glycan array binding signal (z-score) [27]: -0.256 | glycan array binding signal (z-score) [28]: -0.266 | glycan array binding signal (z-score) [29]: -0.032 | glycan array binding signal (z-score) [30]: -0.147 | glycan array binding signal (z-score) [31]: -0.212 | glycan array binding signal (z-score) [32]: -0.349 | glycan array binding signal (z-score) [33]: -0.299

— the supplement of paper PMC8728848
